± gives the standard deviation of the averaged measurements. The list shows a part of the results.
System: PfAP2-G AP2 domain (GST-tagged)
Assay: gcPBM binding intensity (ln(normalized median fluorescence intensity)); higher = stronger DNA binding
Procedure, shortened: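 GST-fused DNA-binding domains of P. falciparum, expressed in E. coli, were applied at about 25 μg on average for 1 h to an Agilent 4 × 180k array of primer-extended double-stranded 36-bp intergenic genomic probes and negative controls. Binding intensity is the highest Masliner-normalised natural-log median intensity across replicate spots of either probe orientation, measured with Alexa488 anti-GST antibody and a 488 nm scan.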

Row | Sequence | gcPBM binding intensity (ln)
1 | TTATTTTTCTAAAAAGCATGCAAATAAAGATATGAA [TGCATGCA_site1032] | 9.98 ± 0.18
2 | TTATGTGTATACTAAGAACACACAAGTTACTTGGTG [CACACA_site8467] | 10.8 ± 0.16
3 | ATTTTGATAACCGTACGTACATATATATATATATAT [XGTACX_site6605] | 11.8 ± 0.85
4 | TGAATACTTATGTTCGCACACATGCAAATTAAAAAA [CACACA_site4048] | 10.5 ± 0.52
5 | ATTCACTGGTATGCATGAAAAAAAATATTATTATAA [CACACA_negctrl_site702] | 9.97 ± 0.28
6 | TATATATATTTATACACACACATATATTTATATATT [CACACA_site484] | 9.845 ± 0.035
7 | ATATACATAAAAATATGTACATATAAAATATATACA [XGTACX_site2394] | 11.3 ± 0.96
8 | ATATAATAAACGTGTACACAATTAAATTATTATATA [CACACA_site5017] | 11.7 ± 1.1
9 | TTTAATATATATATGTGTACATATAAATTATATATA [XGTACX_site8511] | 11.5 ± 0.99
10 | TTTATATTTTAAAAAATAATATTATGTATTTTTAAA [TGCATGCA_negctrl_site507] | 9.57 ± 0.099
11 | GTACTTATTAAATGTGCATGTTGATATATAAATGTA [TGCATGCA_site902] | 10.6 ± 0.29
12 | TTTTTTTTTTTTGGTGCATGCACATTTTGTTTTTTT [TGCATGCA_site570] | 10.1 ± 0.25
13 | TATTATTATTGTTGATGTACATTTAATATAATATAT [XGTACX_site4482] | 11 ± 0.61
14 | TAGACTCCCAGACACACACACACACCCATATAATAT [CACACA_site593] | 10.3 ± 0.24
15 | AAAAAATAAAAGGAAAAAAAAAAAAAAAAAAAAAAT [CACACA_negctrl_site635] | 9.8 ± 0.11
16 | TTTTTTGCTTGGGTGAGAAAAAATAAAATAAAGGAA [TGCATGCA_negctrl_site139] | 10.3 ± 0.42
17 | TTATAATCTTTTGGTTCTATAGAATATCAAAAAATA [CACACA_negctrl_site1149] | 10.1 ± 0.31
18 | TTATTAAAAATGTATTGTACAAATTTATTAGTAAAT [XGTACX_site4799] | 11 ± 0.52
19 | ATTTATACAAAGCTTCGTACATAATGTATTCTTTTT [XGTACX_site2166] | 10.8 ± 0.41
20 | TTTTAATTGTTTATTTGTACATATGTTTAATTATAT [XGTACX_site571] | 10.9 ± 0.44
21 | AATAAATAAATAAATTAATATATATATATATATAGA [CACACA_negctrl_site1661] | 9.39 ± 0.14
22 | AAAGGGTTACAAGAGGAACACACAAAAAAATAAATA [CACACA_site8406] | 10.3 ± 0.23
23 | TTGTATCTTCATTTTATCAGAAAAAAAAAAAAAAAT [CACACA_negctrl_site775] | 9.96 ± 0.4
24 | ATATATATATATAGGGGTACTTAAATTTTACTAACC [XGTACX_site1832] | 11.4 ± 0.93
